Screen size: about 340,000 compounds; about 12,000 (3.5%) were called active. The inconclusive results got no clear call from the source; some entries with a clear call stand among them for comparison. Calls follow the shape of the dose curve; as a rule, active = well fitted inhibition curve with a large enough effect; inconclusive = small, poorly fitted or top-dose-only effect, or another doubt; inactive = no such curve, though single readings can be large or run the other way. Potencies of inconclusive entries are left out as doubtful fits.
Assay: qHTS Assay for Inhibitors of Hepatitis C Virus (HCV)
Details: Huh7.5.1 HCVcc-Cre (HCVcc is cell-culture hepatitis C virus) infection, luciferase reporter, 44 h; series mostly up to 41.8 µM
Procedure, shortened: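 Infectious HCV cell culture screen: compound-treated cells (1,000/well, pre-plated 4 h) are infected with HCVcc-Cre at roughly 0.5 moi and grown 44 h. Infection is quantified by luciferase signal after 15 min substrate incubation at room temperature.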
For `COc1ccc(OCCC(=O)NCCN2CCOCC2)cc1`, the Potency was “inactive”.
With `CC(C)CC1NC(=O)c2ccc(Cl)cc2-n2c1nc1cc(F)ccc1c2=O` (configuration not stated) the Potency was inconclusive [inhibitor, single point].
In the case of `O=C(CNS(=O)(=O)c1cccs1)Nc1ccc2c(c1)OCCO2`, the Potency is reported as “inactive”.
In the case of `C=CCn1c(SCC(=O)Nc2ccc3c(c2)CCC3)nnc1-c1cccs1`, the Potency is reported as inconclusive [inhibitor, single point].
With `O=C(CN(c1ccc2c(c1)OCCO2)S(=O)(=O)c1ccccc1)Nc1ccc2c(c1)OCO2` the Potency was inconclusive [inhibitor, single point].
With `COc1ccc(C2CC(=O)Oc3c(C(C)C)ccc(C)c32)cc1` (configuration not stated) the Potency was inconclusive [inhibitor, single point].
With `COc1ccc(S(=O)(=O)N2CCCCCC2)cc1N(C)S(=O)(=O)c1ccc(C)cc1` the Potency was inconclusive [inhibitor, full curve, poor fit].
In the case of `CC(C)CNC(=O)c1ccccc1N(Cc1ccccc1)S(C)(=O)=O`, the Potency is reported as “inactive”.
With `CCOC(=O)c1[nH]c2ccc(Br)cc2c1NC(=O)CCN1CCC(C(=O)OCC)CC1` the Potency was inconclusive [inhibitor, partial curve, poor fit].
For `Cc1ccc(-c2cccc(C(=O)NCCc3ccccc3)n2)c2ccccc12`, the Potency was inconclusive [inhibitor, partial curve].
With `C=CCSC1=C(C#N)C(c2ccccc2Cl)CC(=O)N1` (configuration not stated) the Potency was “inactive”.
In the case of `CCc1nn(C(C)C(=O)NCc2ccc(Cl)cc2)c(=O)c2cc3occc3n12` (configuration not stated), the Potency is reported as inconclusive [inhibitor, partial curve].
With `O=C(Cc1csc(-c2cccc(Cl)c2)n1)Nc1cccc(S(=O)(=O)NC2=NCCC2)c1` the Potency was inconclusive [inhibitor, single point].
For `CCOC(=O)c1c(NC(C)=O)sc2c(OCCN(CC)CC)c(Br)ccc12`, the Potency was active: 12.6 µM.
For `O=C(CCS(=O)(=O)c1ccccc1Cl)NCCC1=CCCCC1`, the Potency was “inactive”.
With `O=C(COc1cccc2c1CCN(Cc1ccccc1)C2=O)N1CCCCC1` the Potency was inconclusive [inhibitor, single point].
For `COc1cccc(-n2nc(-c3ccnn3-c3ccc(F)cc3)c(=O)n(C)c2=O)c1`, the Potency was “inactive”.
In the case of `O=C(NCc1ccc(Cl)cc1)c1cccc(NC(=O)c2ccccc2)c1`, the Potency is reported as inconclusive [inhibitor, partial curve, poor fit].
In the case of `CC(=O)c1cccc(NC(=O)NC(C)c2ccc3c(c2)OCO3)c1` (configuration not stated), the Potency is reported as “inactive”.
In the case of `CC(=O)Nc1ccccc1OCC(=O)c1ccc2c(c1)OCO2`, the Potency is reported as inconclusive [inhibitor, single point].
With `COC(=O)C1CC(O)C(O)C(O)C1` (configuration not stated) the Potency was “inactive”.
With `CN1CCN(c2nc(N3CCN(CCO)CC3)nc3ccccc23)CC1` the Potency was inconclusive [inhibitor, partial curve].
For `COc1ccc(O)c(-c2cc(C(F)(F)C(F)F)nc(-c3ccccc3)n2)c1`, the Potency was inconclusive [inhibitor, full curve].
In the case of `Cc1ccc(NC(=O)Cc2ccc(Cl)c(Cl)c2)cc1S(=O)(=O)N(C)C`, the Potency is reported as inconclusive [inhibitor, single point].
In the case of `CC(C)(C)c1ccc(OCCC(=O)Nc2ccc(N3CCOCC3)cc2N2CCOCC2)cc1`, the Potency is reported as inconclusive [inhibitor, single point].
For `O=c1cccc2n1CC1CC2CN(Cc2cccc(Cl)c2Cl)C1` (configuration not stated), the Potency was inconclusive [inhibitor, single point].
For `CC(C)Oc1ccc(CC(=O)NNC(=S)Nc2ccc(Br)cc2)cc1`, the Potency was inconclusive [inhibitor, full curve].
In the case of `CC1(C)CSC(=NCc2ccccc2)N1C(=O)c1cccc([N+](=O)[O-])c1`, the Potency is reported as inconclusive [inhibitor, partial curve].
In the case of `O=S(=O)(c1ccc2c(c1)CCCN2)N1CCCC1`, the Potency is reported as “inactive”.
For `COc1cccc(-c2noc(-c3ccc(Br)o3)n2)c1`, the Potency was inconclusive [inhibitor, partial curve].
For `COc1cc(CNCc2ccc(OC)c3ccccc23)cc(OC)c1OC`, the Potency was inconclusive [inhibitor, partial curve].
In the case of `Cc1cc(Cl)cc(C)c1OCCNCc1ccccc1`, the Potency is reported as “inactive”.
With `O=C(c1cc2ccccc2oc1=O)N(Cc1ccccc1F)C1CCS(=O)(=O)C1` (configuration not stated) the Potency was “inactive”.
With `CC(C)(C)C(=O)/C=c1\s/c(=C\c2ccc(-c3ccc([N+](=O)[O-])cc3)o2)c(=O)n1CC(=O)NC(N)=O` the Potency was “inactive”.
With `CCOCCn1ccc2c(OCC(=O)Nc3ccccc3OC)cccc2c1=O` the Potency was inconclusive [inhibitor, single point].
For `CN1CCN(C(=O)CCN2C(=O)/C(=C/c3ccc(F)cc3)SC2=S)CC1`, the Potency was inconclusive [inhibitor, single point].
With `CC(=O)Nc1ccc(S(=O)(=O)NCCOc2ccc(Cl)cc2C)cc1` the Potency was “inactive”.
In the case of `Clc1nssc1=Nc1nncs1`, the Potency is reported as “inactive”.
In the case of `Cc1cc(N2C(=O)C3C4C=CC(C4)C3C2=O)ccc1NC(=O)c1cccs1` (configuration not stated), the Potency is reported as “inactive”.
In the case of `COc1c(OC(C)=O)ccc(/C=C/c2ccc3ccccc3n2)c1[N+](=O)[O-]`, the Potency is reported as inconclusive [inhibitor, single point].
For `O=C(Nc1ccncc1)c1ccc2c(c1)C(=O)N(C1CCCCC1)C2=O`, the Potency was inconclusive [inhibitor, single point].
For `C=CCn1c(=NC(=O)c2ccc(S(=O)(=O)N3CCc4ccccc4C3)cc2)sc2cc(S(N)(=O)=O)ccc21`, the Potency was inconclusive [inhibitor, single point].
In the case of `CCOC(=O)N1CCN(c2nc(-c3cccs3)cc(C(F)(F)F)n2)CC1`, the Potency is reported as inconclusive [inhibitor, partial curve, poor fit].
In the case of `CCOC(=O)N1CCN(S(=O)(=O)c2ccc(C(=O)Nc3sc4c(c3C(N)=O)CCN(CC)C4)cc2)CC1`, the Potency is reported as “inactive”.
For `CC1CCCC(NC(=O)NC(=O)CCl)C1C` (configuration not stated), the Potency was inconclusive [inhibitor, single point].
With `Cc1ccc(NC(=O)c2cnc(SCC(=O)NCC3CCCO3)n(C)c2=O)cc1` (configuration not stated) the Potency was inconclusive [inhibitor, partial curve, poor fit].
With `O=C(CN1CCCCC1)Nc1c2c(nc3ccccc13)N(c1ccccc1)CC2` the Potency was inconclusive [inhibitor, partial curve, poor fit].
With `CCCC1=Nc2cc(C(=O)N3CCCC3)ccc2Sc2ccc(C)cc21` the Potency was “inactive”.
For `N#CC/C(N)=N/Nc1nc2ccccc2nc1Cc1ccccc1`, the Potency was “inactive”.
For `N#Cc1cnn2c1nc(N1CCCCC1)c1ccccc12`, the Potency was inconclusive [inhibitor, partial curve].
In the case of `CCO[C@H]1OC(C(=O)NC2CC2)=C[C@@H](c2c[nH]c3ccccc23)[C@@H]1CCCO`, the Potency is reported as “inactive”.
In the case of `Cc1cccc(Cn2c(O)c(N=NC(=S)Nc3ccccc3F)c3ccccc32)c1`, the Potency is reported as active: 3.98 µM.
With `COCc1cc(CN2CCCC2)c(O)c2ncccc12` the Potency was active: 2.82 µM.
With `CCOC(=O)C1=C(CC)OC(N)=C(C#N)C1c1ccc(NC(C)=O)cc1` (configuration not stated) the Potency was “inactive”.
In the case of `CCN1CCN(c2ccc(Cl)cc2NC(=O)c2ccco2)CC1`, the Potency is reported as inconclusive [inhibitor, single point].
In the case of `C=CCNC(=O)c1ccc(-c2cccc([N+](=O)[O-])c2)o1`, the Potency is reported as “inactive”.
In the case of `OCC1(Cc2ccc(Cl)cc2)CCN(Cc2ccc(Oc3ncccn3)cc2)CC1`, the Potency is reported as inconclusive [inhibitor, partial curve].
In the case of `COC(=O)c1ccccc1Sc1ncnc2onc(C)c12`, the Potency is reported as inconclusive [inhibitor, single point].
With `OC(Cn1cnnc1)c1ccccc1` (configuration not stated) the Potency was “inactive”.
With `CCCCOc1ccc(CN2CCSCC2)cc1` the Potency was “inactive”.
With `S=C(NCCN1CCCCC1)Nc1ccc(Br)cc1` the Potency was inconclusive [inhibitor, single point].
With `O=[N+]([O-])c1cccc(/C=N\N=C2c3ccccc3-c3ccccc32)c1O` the Potency was inconclusive [inhibitor, single point].
With `O=[N+]([O-])c1ccc(-n2nnnc2CN2CCCCC2)cc1` the Potency was “inactive”.
With `CC(C)CN1C(=O)C(=O)N(CC(=O)N2CCC(Cc3ccccc3)CC2)C1=O` the Potency was inconclusive [inhibitor, partial curve].
For `COc1ccc(C(C)=O)cc1CSc1nnc2c(Cl)cc(Cl)cn12`, the Potency was inconclusive [inhibitor, partial curve].
With `O=C(C1CCC1)N1CCc2cc(S(=O)(=O)NCCN3CCN(c4ccccc4F)CC3)ccc21` the Potency was inconclusive [inhibitor, partial curve].
With `Fc1ccc(-c2nnc(CSc3nnc4ccccn34)o2)cc1` the Potency was “inactive”.
With `Cn1c(=O)c(C(=O)COc2ccc(C#N)cc2)c(N)n(Cc2ccccc2)c1=O` the Potency was inconclusive [inhibitor, single point].
For `COc1cccc(NC(=S)N(CCCN2CCC(C)CC2)Cc2cccs2)c1`, the Potency was inconclusive [inhibitor, single point].
In the case of `Cc1[nH]c(-c2ccc(F)cc2)cc1C(=O)N1CCN(c2ccc(Cl)cc2)CC1`, the Potency is reported as inconclusive [inhibitor, single point].
For `CN1c2ccccc2C(O)=C(C(=S)Nc2ccc(F)c(Cl)c2)S1(=O)=O`, the Potency was inconclusive [inhibitor, single point].
In the case of `COc1ccc(S(=O)(=O)NC(C)C(=O)N2CCCCCC2)cc1` (configuration not stated), the Potency is reported as “inactive”.

Reference: PubChem BioAssay AID651820 (National Center for Advancing Translational Sciences (NCATS), 2012)
Potency is read from the fitted curve at half-maximal effect; tags tell the direction and shape of the fitted curve.
